# Test results reported in the supplement of paper PMC4166925.
# ± gives the standard deviation of the averaged measurements. Whole data set: some 33,000 sequences, median “E-score (dimensionless, -0.5 to 0.5)” near -0.049, cut for the highest 2% near 0.37. The list shows a part of the results.
# Test system: T1, PmTbr T-box DNA-binding domain (GST fusion)
# T1 sequence: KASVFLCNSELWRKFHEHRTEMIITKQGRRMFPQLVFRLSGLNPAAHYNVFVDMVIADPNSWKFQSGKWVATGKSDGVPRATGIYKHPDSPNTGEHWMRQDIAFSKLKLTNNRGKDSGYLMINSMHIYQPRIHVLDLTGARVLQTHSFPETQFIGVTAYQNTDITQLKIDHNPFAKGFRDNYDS
# Test: PBM E-score of 8-mer (E-score (dimensionless, -0.5 to 0.5)); Tbr is Tbrain of the sea star Patiria miniata (Pm) or the sea urchin Strongylocentrotus purpuratus (Sp); higher = stronger binding preference; most listed sequences are background and not binding sites
# Conditions: the construct has about 5 more residues each side
# In short: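 GST-fused Tbr T-box DNA-binding domains (the whole T-box plus about five flanking residues) were expressed in BL21 E. coli at 20 °C and purified by glutathione affinity chromatography. Universal Agilent oligonucleotide arrays were made double-stranded by primer extension, incubated with 200 nM protein in PBS (pH 7.5), then scanned and quantified. Every ungapped 8-mer was scored from probe intensities. The Universal PBM Analysis Suite gave each word an enrichment E-score, averaged over duplicate arrays.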
row,Sequence,PBM E-score of 8-mer
1,AATCGACC,0.0168 ± 0.034
2,AAGGGGGC,-0.302 ± 0.033
3,AGTGAAGC,-0.0542 ± 0.015
4,GGTAAACA,-0.05 ± 0.0081
5,AGCTGAAC,-0.107 ± 0.017
6,AAATCTGG,-0.0469 ± 0.029
7,ACTGTGGG,-0.0612 ± 0.032
8,ATATAATG,-0.0513 ± 0.05
9,CGTAGATA,-0.0977 ± 0.032
10,CCGGGCAA,-0.291 ± 0.038
11,AGATTGCA,0.0498 ± 0.025
12,GCGACACA,0.302 ± 0.022
13,ATCGTAGG,0.111 ± 0.039
14,CACCAGTC,0.121 ± 0.02
15,GGGAGACA,0.0535 ± 0.053
16,AATGTGCC,0.23 ± 0.0058
17,GCGTTACC,0.24 ± 0.0082
18,CCGCGAGC,-0.00227 ± 0.03
19,GTGTCGCA,0.415 ± 0.0083
20,GAGTAGCC,-0.136 ± 0.014
21,TCCTTTAA,0.0517 ± 0.017
22,CCCGCGTC,-0.232 ± 0.021
23,CGAGTGAC,0.193 ± 0.025
24,GTGGTGGA,0.121 ± 0.01
25,CCCACAGA,-0.105 ± 0.004

row,Sequence,PBM E-score of 8-mer
1,ATCAGATA,-0.0932 ± 0.0055
2,CGGATAGA,-0.117 ± 0.07
3,ATCTTAGG,-0.139 ± 0.038
4,AACCTCGT,-0.00775 ± 0.063
5,AGACTAGG,-0.0553 ± 0.059
6,GGTACCTA,-0.264 ± 0.074
7,CGATTAGA,-0.0249 ± 0.051
8,ACCCCCCA,-0.17 ± 0.0091
9,CGACTGAA,-0.0953 ± 0.0045
10,CTGTACTC,-0.126 ± 0.069
11,ACAATGGA,-0.126 ± 0.054
12,ACGCTTCC,-0.0398 ± 0.034
13,CGCTCCGA,-0.113 ± 0.1
14,GGTGGCCA,-0.0165 ± 0.13
15,GAAAGATA,-0.231 ± 0.0086
16,CGTACTAA,-0.165 ± 0.15
17,AGTGGGCG,0.113 ± 0.0096
18,AATCCGAC,-0.00864 ± 0.035
19,CAAGCGTG,0.191 ± 0.021
20,TCTATACA,-0.07 ± 0.083
21,GACTAAAC,-0.118 ± 0.048
22,CCGTCCCA,-0.0507 ± 0.061
23,ATGCTCGA,-0.2 ± 0.015
24,ATGATAAT,-0.00907 ± 0.08
25,GGCCTGGA,-0.343 ± 0.014

row,Sequence,PBM E-score of 8-mer
1,CACAAGTC,0.166 ± 0.021
2,CTTCGCAA,0.336 ± 0.028
3,GGGCCATA,-0.114 ± 0.12
4,TATAGCGA,0.0577 ± 0.035
5,ACGGATAC,-0.135 ± 0.0096
6,CTTTGACA,0.24 ± 0.035
7,CACCAGCC,0.07 ± 0.0076
8,ACCGGTAG,0.0183 ± 0.049
9,AAACATGA,0.0362 ± 0.08
10,TCTCTTAA,-0.265 ± 0.069
11,AAAGTGGC,0.234 ± 0.005
12,GATGGGTA,-0.0898 ± 0.014
13,AGTGTCCC,0.176 ± 0.004
14,GCTCATAA,-0.141 ± 0.02
15,ATCAGGTC,-0.169 ± 0.12
16,AATAATCG,0.0012 ± 0.083
17,CGGTTGTC,0.15 ± 0.022
18,GCGACTAA,0.184 ± 0.017
19,GCCTGTAA,0.0336 ± 0.017
20,ATATCTAC,-0.188 ± 0.059
21,ATCTTCCA,-0.0837 ± 0.0074
22,AGTTATAG,-0.158 ± 0.037
23,AGCTCGAC,0.242 ± 0.044
24,CCCAGGCC,-0.191 ± 0.015
25,ATTACCTA,-0.0469 ± 0.0045

row,Sequence,PBM E-score of 8-mer
1,CGGGTAGC,0.0542 ± 0.073
2,ATATAGCC,-0.2087 ± 0.00052
3,ACGTTTGA,0.0627 ± 0.073
4,GCCAGAAC,-0.105 ± 0.041
5,CTTGGCAC,0.352 ± 0.016
6,CTTGGCCA,-0.204 ± 0.012
7,AGCTTTAC,-0.00584 ± 0.064
8,AGGAAGAA,-0.163 ± 0.04
9,CGTTGACA,0.405 ± 0.0049
10,GAAAGAAC,-0.137 ± 0.076
11,ACGGGGAC,-0.0537 ± 0.069
12,AGTGAGAG,0.312 ± 0.022
13,CAGAGACG,-0.147 ± 0.1
14,GCCCAGCA,-0.0465 ± 0.11
15,ACCGCGGA,-0.0338 ± 0.052
16,AGATAACC,-0.193 ± 0.019
17,ACTACCAA,-0.123 ± 0.016
18,ATGGCCGG,-0.237 ± 0.0035
19,CCCGCTCA,-0.052 ± 0.03
20,AGAAGGAG,-0.158 ± 0.038
21,AACGCCAA,0.0837 ± 0.065
22,GAGTGATA,0.246 ± 0.023
23,GACTGGCA,-0.0195 ± 0.022
24,CAATTGGG,-0.063 ± 0.063
25,AGCAATCG,0.0214 ± 0.037

row,Sequence,PBM E-score of 8-mer
1,CTGGGCGC,0.15669 ± 9.9e-05
2,AGGATTGA,-0.0332 ± 0.047
3,AGAACCAA,-0.0884 ± 0.013
4,ACCCAATC,-0.0936 ± 0.012
5,CTCTCTGA,-0.253 ± 0.021
6,CTAACCGA,-0.0216 ± 0.052
7,CATTGTTA,0.123 ± 0.07
8,CGCATGGA,-0.0807 ± 0.0088
9,CATTATGG,0.0845 ± 0.0034
10,CCTTCGCG,0.2566 ± 0.0012
11,ATCTTGTC,0.0542 ± 0.013
12,CATTCCAG,-0.219 ± 0.015
13,GGAACCCA,-0.1998 ± 0.0014
14,AGTGTGGC,0.298 ± 0.012
15,ATGTGGCC,-0.241 ± 0.024
16,CAAAACCG,-0.0313 ± 0.0028
17,GATCGAGA,-0.0348 ± 0.057
18,AAGCGAGG,0.0944 ± 0.026
19,AGACAGAG,-0.139 ± 0.052
20,ATGCAGCC,-0.192 ± 0.0069
21,CGGAATGA,-0.0838 ± 0.033
22,CGACACAC,0.237 ± 0.0089
23,ATTGCGCA,-0.0786 ± 0.035
24,ATTGGTTC,-0.0984 ± 0.05
25,ATACGGTC,-0.12 ± 0.012

row,Sequence,PBM E-score of 8-mer
1,GGACTCGA,-0.169 ± 0.076
2,TACCACGA,0.0444 ± 0.043
3,CGAAGCTC,-0.11 ± 0.043
4,ACACCACC,0.405 ± 0.0043
5,GGCTTCTA,-0.336 ± 0.046
6,ATTCTGTG,-0.123 ± 0.067
7,GCCATTCC,0.0412 ± 0.042
8,TAACATAA,-0.0455 ± 0.016
9,GACCGCTA,-0.127 ± 0.037
10,GAATGCTA,0.0675 ± 0.021
11,CCTTCATC,-0.131 ± 0.052
12,GGTATAAA,-0.255 ± 0.078
13,CGGCAACC,-0.0228 ± 0.011
14,AGGGAAAT,-0.153 ± 0.043
15,CAGTCTAC,-0.169 ± 0.023
16,ACTACTTC,-0.0149 ± 0.046
17,TGCTCTAA,-0.317 ± 0.046
18,GATATATA,0.00683 ± 0.036
19,CGCTATGC,-0.0262 ± 0.022
20,AGGCGCAG,-0.0586 ± 0.053
21,CGCCAACA,0.259 ± 0.036
22,CTTCTACA,-0.126 ± 0.018
23,GCAGGGAA,-0.0487 ± 0.017
24,CTTGTAAA,0.073 ± 0.03
25,AAAACCGT,-0.00562 ± 0.047

row,Sequence,PBM E-score of 8-mer
1,AATCGGAA,0.201 ± 0.037
2,AGCTTCCT,-0.258 ± 0.025
3,GGGGAGGA,-0.183 ± 0.083
4,ATGGTTGG,0.0213 ± 0.029
5,AGTAATGG,-0.193 ± 0.014
6,ATTTCGTG,0.0509 ± 0.01
7,AGGACCCG,-0.037 ± 0.039
8,GAACCTTA,-0.144 ± 0.042
9,ATAGCCGA,-0.231 ± 0.038
10,TCGTCCCA,-0.28 ± 0.0074
11,AACGCAGT,0.0247 ± 0.0046
12,CTAACAGC,0.168 ± 0.056
13,CAGCCCTA,-0.104 ± 0.032
14,AATATATA,-0.0392 ± 0.088
15,ATTTGTAA,-0.0411 ± 0.12
16,GGGTTCAC,0.17 ± 0.039
17,ATGCTGTA,-0.236 ± 0.032
18,GAGTATCC,-0.174 ± 0.014
19,CATAGACC,-0.27 ± 0.033
20,GGGATCTA,-0.211 ± 0.079
21,ATGATCAG,-0.232 ± 0.0052
22,CAGTAGTA,0.0233 ± 0.0039
